# From the supplement of paper PMC11417369
# The list shows a part of the results.
# Tested on: PfHDP1 homeodomain (GST-tagged)
# Test: gcPBM binding intensity (ln(normalized median fluorescence intensity)); higher = stronger DNA binding
# Summary of the method: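 An Agilent 4 × 180k array of primer-extended double-stranded 36-bp intergenic genomic probes, with negative controls, was incubated for 1 h with GST-tagged P. falciparum DNA-binding domains expressed in E. coli. Alexa488 anti-GST antibody detected bound protein, scanned at 488 nm. Binding intensity is the highest Masliner-normalised natural-log median intensity across replicate spots of either probe orientation.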
row,Sequence,gcPBM binding intensity (ln)
1,AAAGAAAGCACATACACACACAAAAAAAAAAAAGAA [CACACA_site776],6.61
2,AAAGTAAAAATATACTGTACAAATTTTTTCCCCTCT [XGTACX_site171],6.5
3,AAACAAAAAAAAAAAAAAAAAAAAAAAAAAAAAAAA [GTGCAC_negctrl_site254],6.1
4,GATGCACTTTAAAAATGTACTTATACCTTTAATTGT [XGTACX_site6395],8.27
5,ATATTTATATACAAATGTACGCATATAATATATATA [XGTACX_site1232],6.68
6,TAAAAAAAAAAAAATACACACACACCGATATATATA [CACACA_site8498],6.89
7,TAAGTGCATGAGATATGTACATATATAAAATATATA [XGTACX_site3294],9.2
8,AATAAAAACTAAACATGTACGCACATATATATATAT [XGTACX_site8096],9.42
9,TCATAGTCTTAATGACTACACACCTAACTATGCATG [CACACA_site1839],6.28
10,ATATATATACATACATACCTATGTATATGTGTAATT [GTGCAC_negctrl_site50],6.96
11,ATGGTAGTGATTAAAAGTACACGTAATTGTAAAAAT [XGTACX_site387],6.75
12,TAAACAACTTATAAATGTACACATATTTTAATTACC [XGTACX_site5409],6.51
13,ACCCAACATATGTGTACACAGAAAATAAATATAATA [CACACA_site5901],7.31
14,TTTTGTAATTCTCTTCATATAATTTATATATATATA [CACACA_negctrl_site1825],8.57
15,GTGTTTTTTTTAGATTGTACATATATATATATATAT [XGTACX_site4562],9.11
16,TTTGTTTTTTCTTTTTGTACATATACAAGATACGTA [XGTACX_site2309],6.75
17,GTATATATTCATATGGAAAATAAAGGAGAAAACAAG [TGCATGCA_negctrl_site220],7.38
18,ATGTATGTATAATATACACACTCACAAGCATTCAAA [CACACA_site4306],6.75
19,ACAGATATACATAAAAAAAAAATAATTTTACATATA [CACACA_negctrl_site929],6.1

row,Sequence,gcPBM binding intensity (ln)
1,AGCACAGACGGACACACACACATATATATATATATA [CACACA_site4341],9.38
2,ATATATATGTATGTATGTACATATTTGAATTTATTT [XGTACX_site8470],6.66
3,TTCCATATAATTACATGTACACATTTTGAATAATAT [XGTACX_site3692],6.98
4,ATAAACATATCAATATGTACATATTTTTGTTTGTAT [XGTACX_site7018],6.28
5,TTATAATAGTTAAATGTACACACTAACTACATGGAA [CACACA_site9070],6.83
6,AAACCACAAAATTTTTTATATATGACCAATACATAG [CACACA_negctrl_site277],6.54
7,ATTTATCAATAAAATGCACACACTGTAATATTATTA [CACACA_site3976],9.96
8,ATTTGTTACACTAAATGTACATACATACATATATAT [XGTACX_site6175],6.98
9,TTATAAATTATAGGTACACACAAAAAAAAAAAGAAA [CACACA_site1327],6.73
10,TATAATATAAAAAAAAGTACACGAATTTTTTTTCAG [XGTACX_site6105],6.07
11,AAATAAATTTGACCAGTGCAATAACTTTGTATACCT [GTGCAC_site9446],9.24
12,ATCCAAAAGAAAAATAGTACAGATATGAACAATATG [XGTACX_site6944],6.48
13,ACAATATATTTTTGAGCATGCGCAAAAGAGAATGCA [TGCATGCA_site566],8.51
14,TAAAATCAATGTTCTTGTACTTAAAATGTTTGTTCT [XGTACX_site5490],6.15
15,ATATATCTATATAGAAATGTATATATATATATGTGT [TGCATGCA_negctrl_site349],6.57
16,TATTATTCTACTATTATATTCTATATTATTTATAGT [CACACA_negctrl_site499],6.31
17,AAAATTAAATTATTTACACACAATATTAAAATATTT [CACACA_site3244],6.5
18,AGTATAAAATTTGGTTGTACATTTTTAAAAAAATTA [XGTACX_site7519],6.03
19,TCAAAGGAATTTTTATGTACATATAAACTTTATTCT [XGTACX_site3432],6.39

row,Sequence,gcPBM binding intensity (ln)
1,AAAAAAAAAAAAAAATGTACATATATATTTATATAT [XGTACX_site229],6.25
2,AAAAGTTGTATTTGCACACATAAAAAAAAGATATTA [CACACA_site3840],10.3
3,AACCCCAAGCCGTACTGTACATATATTTTTATTTTA [XGTACX_site142],6.9
4,AAATTCAAACAAATTACACACATTTTTTTTTAATTT [CACACA_site3596],6.85
5,ACTTTAAAAAGATTCACACAAAATATATAAAAATAT [CACACA_site5334],6.25
6,ATATCAATTTTTGGTGGTACGTAGGAAGTTTCAGAA [XGTACX_site6881],6.92
7,TTTTTTTTTTTTTATACACACATTAAAATAAAAAAG [CACACA_site3946],6.74
8,CTCTTCCTTAATTTTTGTACTTAAAATTTTTTTTTT [XGTACX_site1628],7.01
9,AAAGAAAAAAAAAAAACACACAAAAAAAATCAAAAT [CACACA_site2871],6.54
10,AACATATACTGTTTATGTACACATTGTTATATTAAT [XGTACX_site4276],6.4
11,ATATAATTTAATTTCTGTACATAAGAGAAAAAACAA [XGTACX_site4865],6.91
12,TTATGCAAAAATAAATCAATATGTTGATATGTAAAT [GTGCAC_negctrl_site128],6.75
13,TACATTTTATGCATTTGTACACAAATAAATAAATAA [XGTACX_site2652],6.41
14,CATAATATTAAATCAGTGCAAATATACAGAATAAAT [GTGCAC_site9786],9.8
15,AAATGAAGATTTAAATGTACGAGAGGGTATACAAAT [XGTACX_site5075],7.05
16,GACTTCTCCATATACACACACCAACAAATATAAAAA [CACACA_site7331],7.53
17,AAATTTATAAATTAAAGTACATATTTCTTGAATATT [XGTACX_site859],6.16
18,TATAGATACACTTTGTGTACATAAAAATTGTATTAA [XGTACX_site7137],6.47
